{"source": "paper PMC12136788", "binders": {"B1": {"name": "ENSG00000198856:stop:overlap|stop_codon|ENSG00000198856|stop_codon|NA|stop_codon (ssRNA)", "RNA": "GGGAGUUCUACAGUCCGACGAUCUGAGUUUUUUCAUGGCUAGAGUAUUCAUGAGAAUGAAACUGCCGGGCUAUCUGAUGGGUUAGAGUGCCUUUGAGAAGAAAUCAGUGGAUACUGGAUUUGCUCCUGUCAAUGAAGUUUUAACAACAGAGGAUUGAGCAUCA"}, "B2": {"name": "chr3:27418507:27418620:-|CDS|ENSG00000033867|unk|total|mutant (ssRNA)", "RNA": "GGGAGUUCUACAGUCCGACGAUCUGAUGCCGCUUAUAAAGCAAAAGACAGAAAUGACCUCUUAUCUGGAAUUGAUGAAUUUUCCGAUCAAGUAACUGUCCUACCUCCAGGAGAGUGGGAUCCUUCUAUACGCACCGAACCACCCAACAGAGGAUUGAGCAUCA"}, "B3": {"name": "chr10:71816642:71816777:-|3pUTR|ENSG00000197746|msi1_unk|FALSE|overlapping (ssRNA)", "RNA": "GGGAGUUCUACAGUCCGACGAUCUUGUUUGGGGUUCUGUGGGUUUGGGUGGGAAGAGGGCCAUCUGCCUGAAUGUAACCUGCUAGCUCUCCGAAGGCCCUGCGGGCCUGGCUUGUGUGAGCGUGUGGACAGUGGUGGCCGCGCCAACAGAGGAUUGAGCAUCA"}, "B4": {"name": "chrY:12776687:12776788:+|CDS|ENSG00000114374|msi1|FALSE|unique (ssRNA)", "RNA": "GGGAGUUCUACAGUCCGACGAUCGUUUUUGAUGGUGACAAAAACAGCAUUAAUUGUGCAAGACAAGAAGCCAUUCGAAUGGUUAGAGUAUUAACUGUUAUAAAAGAGUACAUUAAUGAAUGUGACAGUGAUUAUCACAAGGAACAACAGAGGAUUGAGCAUCA"}, "B5": {"name": "chr1:154944474:154944574:-|3pUTR|ENSG00000163346|msi1_unk|FALSE|overlapping (ssRNA)", "RNA": "GGGAGUUCUACAGUCCGACGAUCUCGAGGCCCAGCACGAGGACUUACCCUGGGGUUUUGUUAGGUUUGGAAGCAGCUGUCCCUAGGGGGUGAAGUCCCCCCCCUUUUUUUUUUUACCCCUGCUUCUCCCACGGCUUCACCUCCCAACAGAGGAUUGAGCAUCA"}, "B6": {"name": "chr4:150908776:150908877:-|CDS|ENSG00000198589|msi1|total|mutant (ssRNA)", "RNA": "GGGAGUUCUACAGUCCGACGAUCGUUGAUUUGUACUCCGAUUCUCUUUGUGGCAUACUAUUUAACUGUUUUUAAUUAAUUCUCCGGGUACAUUUAAAUUCAAAGCAGAAAGCGACCUUUUCCUUGCUGAGCAUCACAAACUUUCAACAGAGGAUUGAGCAUCA"}, "B7": {"name": "chr19:15272971:15273072:-|CDS|ENSG00000141867|msi1|FALSE|unique (ssRNA)", "RNA": "GGGAGUUCUACAGUCCGACGAUCGUCUGCGGAGAGCGGCCCUGGGACGAGAUUGAGAAAUCUGCCAGUAAUGGGGGAUGGACUAGAAACUUCCCAAAUGUCUACAACACAGGCCCAGGCCCAACCCCAGCCAGCCAACGCAGCCAACAGAGGAUUGAGCAUCA"}, "B8": {"name": "chr9:132328913:132329014:-|CDS|ENSG00000107290|msi1|FALSE|bound_elsewhere (ssRNA)", "RNA": "GGGAGUUCUACAGUCCGACGAUCAGAACAAAAAUCUCAAAACAAUGUAUUGCCAAAAGAGAAACAAUUAAAGAAUGAAGAAUUAGUUAUUUUCUCUUUCCAUGAAAACAAUUGUAAAAUACAGGAAUUUCAUGUUGAUGGUAACAACAGAGGAUUGAGCAUCA"}, "B9": {"name": "chr3:15690066:15690176:-|CDS|ENSG00000206560|unk|FALSE|bound_elsewhere (ssRNA)", "RNA": "GGGAGUUCUACAGUCCGACGAUCAGUGUUGGUACAGUCUUUGUUAGAUCUUGAUGUCAGAAAUAGUAGUGGAAGAACACCCCUAGAUCUUGCAGCUUUUAAGGGCCAUGUUGAAUGUGUGGAUGUACUCAUUAAUCAGGGAGCCAACAGAGGAUUGAGCAUCA"}, "B10": {"name": "chr2:108783740:108783841:+|CDS_3pUTR|ENSG00000153201|msi1_unk|total|mutant (ssRNA)", "RNA": "GGGAGUUCUACAGUCCGACGAUCCAAUAAUUCUCAAUUUGUUAUAACACUGAAGAAAGCAGAACAUUUGGACUUUAAGCAUGCCGUAUUUGGGUUUGUUAAGGAUGGCAUGGAUACUGUGAAAAAGAUUGAAUCAUUUGGUUCCAACAGAGGAUUGAGCAUCA"}, "B11": {"name": "chr9:128583791:128583907:+|CDS|ENSG00000197694|unk|total|mutant (ssRNA)", "RNA": "GGGAGUUCUACAGUCCGACGAUCCAACCAGCAACAGCAAUUUAAUCGCAAUGUUGAGGAUAUUGAAUUGUGGCUAUAUGAAGCCGAAGGUCACUUGGCUUCGGAUGAUUACGGCAAAGAUCUUACCAAUGUGCAGAACCUCCACAACAGAGGAUUGAGCAUCA"}, "B12": {"name": "chr20:4853394:4853498:-|3pUTR|ENSG00000089057|unk|total|mutant (ssRNA)", "RNA": "GGGAGUUCUACAGUCCGACGAUCUAUGACCAUGAGCUAAGUUGUUAUUUCUUUCAUUCAUAUCCCUGCUGAAAUAUUGGUACCCGCAACUUAAAGUUGGCAAGUCUCAUCUUCAGUAAUACGGAUGCCAUGGGAGUGGCCAGGCAACAGAGGAUUGAGCAUCA"}, "B13": {"name": "chr9:132328913:132329014:-|CDS|ENSG00000107290|msi1|total|mutant (ssRNA)", "RNA": "B8 RNA with U83C, A84C"}, "B14": {"name": "chr20:56369402:56369507:-|3pUTR|ENSG00000087586|unk|FALSE|unique (ssRNA)", "RNA": "GGGAGUUCUACAGUCCGACGAUCAGAAGAGGCCAUGUGUCUCAGAGCUGUUAAGGGCUUAUUUUUUUAAAACAUUGGAGUCAUAGCAUGUGUGUAAACUUUAAAUAUGCAAAUAAAUAAGUAUCUAUGUCUGUGUGGAGUGCUCAACAGAGGAUUGAGCAUCA"}, "B15": {"name": "chr22:46316300:46316401:+|CDS|ENSG00000075218|unk|FALSE|unique (ssRNA)", "RNA": "GGGAGUUCUACAGUCCGACGAUCGGCGGCCAGUGGCUGAACUCCAGUUGCGCUUGGUCAGAAUCUUCUCAAUUGAAUAAGACUAGAAGUAUCAGACGGCGAGAUUCCUGUCUAAAUUCCAAGACAAAGGUUAUGCCUACUCCUCAACAGAGGAUUGAGCAUCA"}, "B16": {"name": "chrX:53645320:53645442:-|CDS|ENSG00000086758|unk|FALSE|unique (ssRNA)", "RNA": "GGGAGUUCUACAGUCCGACGAUCUUAUUGGCUUCCUCUGAUAUGCAAGUGGUGCUGGCAGUCCUCAAUCUCCUAUAUGUAUUUAGCAAAAGAUCAAACUACAUCACUCGUCUGGGAUCUGACAAGAGGACCCCGCUGCUAACUCAACAGAGGAUUGAGCAUCA"}, "B17": {"name": "chr9:37126384:37126485:+|CDS|ENSG00000147905|unk|total|mutant (ssRNA)", "RNA": "GGGAGUUCUACAGUCCGACGAUCUAUCGAGAUGAGUCAUCCCGUGAACUGAGUGUUGACCGUGAGGUGGAAUUUCAACUCUACCGCCAAAUUCAUUAUGCCCAAGAUCUUGAUGAUGUCAUCAGGGAGGAAGAGCAUGAAGAACAACAGAGGAUUGAGCAUCA"}, "B18": {"name": "ENSG00000147421:stop:overlap|stop_codon|ENSG00000147421|stop_codon|NA|stop_codon (ssRNA)", "RNA": "GGGAGUUCUACAGUCCGACGAUCACACUUGGUCCCCUGAGAGAAGGAUGGAAGAAAAUAAAUGGAAGUUGCUUUCUGCAGGGUAGGAGAUUGGCUGGACAGUUACUUCAAUGAGAAUCAAUACCCAGAUGAAGCAAAGAGGGACAACAGAGGAUUGAGCAUCA"}, "B19": {"name": "chr17:73284618:73284719:-|3pUTR|ENSG00000179604|msi1|FALSE|unique (ssRNA)", "RNA": "GGGAGUUCUACAGUCCGACGAUCGGGCACUCGCUCAGUCCCUAGGGGCUUGUUUGUUCUUUAUUAUUGUGUUUAAAUCCUUAUAGAGCAAUAUCAGGAUGGUGUUAAUAGGUCUGCCUCAGAAUGAGAAUCAAUCCUUUUAGACAACAGAGGAUUGAGCAUCA"}, "B20": {"name": "ENSG00000071189:stop:overlap|stop_codon|ENSG00000071189|stop_codon|NA|stop_codon (ssRNA)", "RNA": "GGGAGUUCUACAGUCCGACGAUCUUGGACCCUUUGUAAUAUUUUAUUUGACAUUUUAUAUCCUCUGCUUUGUGGGUGGUGCUUAGAAGAAAUGAAACGGGAAGCCAGGACUAUUAAGAUUGAUAGAAGAUUGACGGGUGCCAACAACAGAGGAUUGAGCAUCA"}, "B21": {"name": "chr5:74627411:74627511:-|3pUTR|ENSG00000171617|msi1_unk|total|mutant (ssRNA)", "RNA": "GGGAGUUCUACAGUCCGACGAUCUUUGUAAAACUGUUAUUUUUUUUUUUUUCACAAUGUGAAACUGAAGGUCAAUAAAUUAUCCGAGAUUUUCUCUUCAUUAUGUGUGUGGGUCUUCAUUUGAAUAAGACACAAUUUGAGGCACAACAGAGGAUUGAGCAUCA"}, "B22": {"name": "chr19:582815:582998:+|CDS_3pUTR|ENSG00000172270|msi1_unk|FALSE|overlapping (ssRNA)", "RNA": "GGGAGUUCUACAGUCCGACGAUCUCAUACACUUCCUUCUUUUUUAAAAAAGUUGGGUUUUCUCCAUUCAGGAUUCUGUUCCUUAGGUUUUUUUCCUUCUGAAGUGUUUCACGAGAGCCCGGGAGCUGCUGCCCUGCGGCCCCGCAACAGAGGAUUGAGCAUCA"}}, "note": "Numbering of substitutions follows the chain as printed. The list shows a part of the results.", "data": [{"target": "T1, UNK ZnF1-6 (called full-length) (human, UniProt Q9C0B0 30-357)", "T1 sequence": "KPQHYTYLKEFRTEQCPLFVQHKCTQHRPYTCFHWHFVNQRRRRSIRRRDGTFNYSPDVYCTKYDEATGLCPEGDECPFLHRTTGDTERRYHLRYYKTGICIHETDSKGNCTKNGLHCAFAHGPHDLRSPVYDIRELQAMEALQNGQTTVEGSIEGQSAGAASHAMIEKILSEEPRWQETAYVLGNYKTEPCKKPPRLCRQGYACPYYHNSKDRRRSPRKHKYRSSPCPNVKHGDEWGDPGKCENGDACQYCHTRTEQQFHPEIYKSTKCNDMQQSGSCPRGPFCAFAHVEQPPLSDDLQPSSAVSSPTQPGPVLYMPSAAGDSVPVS", "test": "nsRBNS (natural sequence RNA bind-n-seq); RBNS binding buffer (assumed for nsRBNS): 25 mM Tris pH 7.5, 150 mM KCl, 3 mM MgCl2, 0.01% Triton X-100, 500 ug/ml BSA, 20 U/ml SUPERase-In, 4 C; UNK is unkempt and MSI1 is Musashi-1; names of the RNAs are library labels; protein concentration not given here; high values mean tight binding", "units": {"binding signal": "enrichment R"}, "values": [{"binder": "B1", "binding signal": 1.02}, {"binder": "B2", "binding signal": 0.451}, {"binder": "B3", "binding signal": 0.99}, {"binder": "B4", "binding signal": 0.565}, {"binder": "B5", "binding signal": 1.37}, {"binder": "B6", "binding signal": 1.26}, {"binder": "B7", "binding signal": 0.88}, {"binder": "B8", "binding signal": 0.598}, {"binder": "B9", "binding signal": 0.921}, {"binder": "B10", "binding signal": 0.395}, {"binder": "B11", "binding signal": 0.51}, {"binder": "B12", "binding signal": 0.385}, {"binder": "B13", "binding signal": 0.518}, {"binder": "B14", "binding signal": 0.409}, {"binder": "B15", "binding signal": 0.572}, {"binder": "B16", "binding signal": 0.899}, {"binder": "B17", "binding signal": 0.413}, {"binder": "B18", "binding signal": 0.588}, {"binder": "B19", "binding signal": 0.82}, {"binder": "B20", "binding signal": 0.696}, {"binder": "B21", "binding signal": 0.75}, {"binder": "B22", "binding signal": 0.839}]}]}
